PubChem BioAssay AID2101 (National Center for Advancing Translational Sciences (NCATS), 2009)
About 300 (0.091%) of roughly 330,000 compounds were called active. The shares of active, inactive and inconclusive entries below differ from those in the screen. Calls follow the shape of the dose curve; as a rule, active = well fitted inhibition curve with a large enough effect; inconclusive = small, poorly fitted or top-dose-only effect, or effect the other way, or another doubt; inactive = no such curve, though single readings can be large or run the other way. Potencies of inconclusive entries are left out as doubtful fits.

What follows are compounds tested against Lysosomal acid glucosylceramidase (Homo sapiens) (UniProt P04062) (assay: qHTS Assay for Inhibitors and Activators of N370S glucocerebrosidase as a Potential Chaperone Treatment of Gaucher Disease). Settings: N370S GC spleen homogenate, 4MU-glucoside fluorescence; activity change, negative = inhibition: at 59.4 µM (top of the series) unless noted.
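For activity change, negative = inhibition in this document: 0% = full enzyme activity and -100% = no enzyme basal.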
Potency is read from the fitted curve at half-maximal effect.

Structure (SMILES)	Potency	activity change, negative = inhibition
COc1ccc(-c2cc(C(=O)Nc3ccc(C)c(C)c3)no2)cc1	inactive	
O=C(COc1ccccc1[N+](=O)[O-])Nc1ccc(Br)cc1	inconclusive [activator, full curve]	
COC(=O)c1c(NC(=O)c2cccc(S(=O)(=O)N3CCN(C)CC3)c2)sc(C)c1C	inconclusive [inhibitor, full curve]	
CCOC(=O)c1c(NC(=O)CN2CCCc3ccccc32)sc(C)c1CC	inconclusive [activator, partial curve]	
CCOC(=O)c1sc2nccc(N(C)C)c2c1N=CNOCc1ccccc1	inconclusive [activator, single point]	
COc1ccc(N(C(=O)Cn2nnc(-c3ccc(F)cc3)n2)C(C)C(=O)NC2CCCC2)cc1 (stereo unspecified)	inactive	
CC1CC(C)(C)Nc2ccc(N=O)cc21 (stereo unspecified)	inactive	
COc1ccc(Cl)cc1C(=O)Nc1nc2ccccc2[nH]1	inconclusive [activator, single point]	
Cc1ccc(C(=O)COC(=O)c2n[nH]c(=O)c3ccccc23)cc1	inconclusive [inhibitor, partial curve]	
FC(F)(F)C(Oc1nc(NC2CCCCC2)nc(N2CCOCC2)n1)C(F)(F)F	inconclusive [activator, partial curve]	
CC(=O)c1cc(CC=C(C)C)c(O)cc1O	inactive	
COc1ccc(CNC(=O)COC(=O)c2ccccc2OCC(=O)Nc2ccc(SC(F)F)cc2)cc1	inconclusive [activator, partial curve]	
CCCCOC(=O)CSCC(=O)N1N=C(c2cccs2)CC1c1ccc(F)cc1 (stereo unspecified)	inconclusive [activator, single point]	
NS(=O)(=O)c1ccc(N2N=C(c3ccc(Br)cc3)CC2c2ccc(F)cc2)cc1 (stereo unspecified)	inconclusive [activator, partial curve]	
Cc1cc(C)n(-c2nc(NCC3CCCO3)c3c4c(sc3n2)COC(C)(C)C4)n1 (stereo unspecified)	inconclusive [activator, partial curve, poor fit]	
CC(=O)c1ccc(S(=O)(=O)N(CC(=O)NC2CC2)Cc2ccc(F)cc2)cc1	inactive	
CCC(C)NC(=O)CCSc1ccc(C)cc1 (stereo unspecified)	inactive	
O=C(NCCN1CCOCC1)c1ccc2c(c1)N(Cc1cccc(F)c1)C(=O)c1ccccc1S2	inconclusive [inhibitor, partial curve]	
Cc1ccc(CCNC(=O)C2CCCN2S(=O)(=O)c2ccc3c(c2)CCC(=O)N3)cc1 (stereo unspecified)	inconclusive [inhibitor, single point]	
COc1ccc(C[C@H]2CN3C(=NC[C@@H]3Cc3ccccc3)N2CCNC(=O)c2ccc(C)c(Br)c2)cc1	inconclusive [inhibitor, single point]	
N#CCC(=O)N/N=C/c1ccc(N2N=C(c3ccccc3)CC2c2ccccc2)cc1 (stereo unspecified)	inconclusive [activator, partial curve]	
CCCCN1C(=O)/C(=C/C=C2/C=Cc3ccccc3N2CC)SC1=S		inconclusive: 29.6% [activator]

Structure (SMILES)	Potency	activity change, negative = inhibition
N#C/C(=C/c1ccc(N2CCCCCC2)o1)c1cccc(F)c1	inactive	
COc1ccc(CCN(C)CC(O)COc2c(C)ccc(C)c2C)cc1OC (stereo unspecified)	inconclusive [inhibitor, partial curve]	
Nc1c(C(=O)NCc2ccco2)c2nc3ccccc3nc2n1CCc1ccccc1	inconclusive [activator, partial curve]	
O=S(=O)(c1cc(Br)ccc1Br)N1CCCCCC1	inconclusive [activator, single point]	
Cc1cc(C)c(S(=O)(=O)N2CC=C(c3ccccc3)CC2)c(C)c1	inconclusive [activator, full curve, poor fit]	
CCOC(=O)C1=C(C)NC(SCC(=O)O)=NC1c1ccccc1 (stereo unspecified)	inconclusive [inhibitor, single point]	
Cc1ccc(-c2nc(NC(=O)CSc3nnc(C)s3)ns2)cc1	inactive	
O=C(CC(=O)c1ccccc1)Nc1cccnc1Cl	inactive	
COc1cc2cc(C(N)=O)c(N)nc2cc1OC	inconclusive [activator, partial curve]	
CN1C(=O)NC(c2ccc(O)cc2)C2=C1CN(c1ccc(O)cc1)C2=O (stereo unspecified)	inconclusive [inhibitor, partial curve]	
Oc1cc2c(cc1O)C1c3ccc(O)c(O)c3OCC1(O)C2 (stereo unspecified)	inconclusive [inhibitor, single point]	
Fc1ccc(-c2nnc(CSc3nnc(-c4ccc5c(c4)OCO5)o3)o2)cc1	inconclusive [inhibitor, single point]	
N#Cc1cn(CCCOc2ccccc2)c2ccccc12	inconclusive [activator, partial curve]	
CC(C)(C)c1ccc(/C=C2\Oc3c(ccc(O)c3CN3CCN(CCO)CC3)C2=O)cc1	inconclusive [inhibitor, partial curve]	
COc1ccc(OC)c(C2=Nn3c(nnc3-c3ccc(OC)c(OC)c3)SC2)c1	inactive	
Cc1ccc2cc(/C=C(\C#N)C(N)=O)c(N3CCCCC3)nc2c1	inactive	
CCC(=O)Nc1c(S(=O)(=O)c2ccc(C)cc2)c2nc3ccccc3nc2n1C(C)c1ccccc1 (stereo unspecified)	inconclusive [activator, partial curve]	
COC(=O)C1=C(C)NC(=S)NC1c1ccc(-c2cc(Cl)ccc2Cl)o1 (stereo unspecified)	inactive	
CCC1Oc2ccc(C)cc2N(CC(=O)N(Cc2ccc3c(c2)OCO3)CC2CCCO2)C1=O (stereo unspecified)	inconclusive [activator, partial curve]	
O=C(CCc1ccccc1)NNC(=O)Nc1ccccc1		inconclusive: 30.2% [activator]
C=CCn1cccc(/C=C/C(=O)c2ccc(C(C)(C)C)cc2)c1=S	inconclusive [activator, single point]	
CC(C)OC(=O)CSc1nc(Cc2ccccc2)nc2ccccc12	inconclusive [activator, single point]	

Structure (SMILES)	Potency	activity change, negative = inhibition
COc1ccc(CNC(=O)C2CCN(S(=O)(=O)c3cccc4nsnc34)CC2)cc1	inconclusive [inhibitor, single point]	
COc1ccc2c(c1)c(=O)oc1cc(OCC(=O)N3CCCC(C)C3)ccc12 (stereo unspecified)	inactive	
CSc1ccc(/C=C/C(=O)NC(=O)c2ccccc2O)cc1	inactive	
C=CCNc1nc(N)c(C(=C(C#N)C#N)c2ccccc2)s1	inconclusive [activator, partial curve]	
CCOc1ccc(/C=N/NC(=O)c2nnn(-c3nonc3N)c2-c2cccs2)cc1	inconclusive [activator, partial curve]	
O=C(CCSCc1ccccc1)Nc1ccc2c(c1)OCCO2	inconclusive [activator, single point]	
C=CCCN(C1CCCC1)S(=O)(=O)c1ccccc1Br	inconclusive [activator, partial curve]	
CC1(C)CC(NC(=O)C(C)(C)Oc2ccc(Cl)cc2)CC(C)(C)N1	inactive	
COc1ccc(CNS(=O)(=O)c2cc(OCC(N)=O)c(C)cc2Cl)cc1	inconclusive [inhibitor, full curve, poor fit]	
CCOc1ccc(CCNC(=O)CCS(=O)(=O)c2ccc(Br)cc2)cc1OCC	inconclusive [inhibitor, single point]	
O=C(CCCCl)NC(=S)Nc1cc(C(F)(F)F)ccc1N1CCOCC1	inconclusive [activator, partial curve]	
Cc1ccc(Cn2cccc(-c3nc4ccccc4s3)c2=O)cc1	inconclusive [activator, partial curve]	
CC(C)C(NC(=O)c1ccco1)C(=O)NCc1ccc(C(=O)O)cc1 (stereo unspecified)	inconclusive [inhibitor, partial curve]	
COC(=O)[C@@H](NC(=O)N1CCc2nc(-c3ccc(OC)cc3C)c3c(c2C1)CO[C@@H](c1ccccc1)C3)C(C)C		inactive: -18.6% [at 12.8 µM]
O=c1[nH]c2ccccc2c(=O)n1Cc1ccccc1	inconclusive [activator, partial curve]	
CCOC(=O)C1=C(C(F)(F)F)Nc2ncnn2C1c1ccc(OC)c(OC)c1OC (stereo unspecified)	inconclusive [inhibitor, full curve, poor fit]	
COc1ccc(N2C(=O)[C@H]3CCC=C[C@H]3[C@@H]2c2ccccc2Br)cc1	inconclusive [activator, partial curve]	
Cc1ccccc1CN1C(=O)c2ccccc2Sc2ccc(C(=O)NCCN3CCOCC3)cc21	inconclusive [inhibitor, partial curve]	
COc1ccc(N(CCCN2C(=O)c3cccc4cccc(c34)C2=O)C(=O)c2cccc(OC)c2)cc1	inactive	
CC(c1ccco1)N(C(=O)COc1ccc(Cl)cc1Cl)c1ccccn1 (stereo unspecified)	inconclusive [activator, single point]	
Cc1ccccc1-n1c(C)cc(/C=C2/C(=N)N3C(c4ccccc4)=CSC3=NC2=O)c1C	inconclusive [inhibitor, single point]	
O=C(O)c1cccc(Nc2nc(-c3ccccc3)nc3ccccc23)c1	inconclusive [inhibitor, partial curve]	
